Out of some 44,000 compounds screened, about 340 (0.77%) were called active. Not shown: some 5% with an inconclusive outcome. The call rests on the fitted dose curve; in most records, active means well fitted inhibition curve with a large enough effect; inconclusive means small, poorly fitted or top-dose-only effect; inactive means flat fitted curve, though single readings scatter. Some of the results follow.
assay: Acumen qHTS Assay for Inhibitors of the mTORC1 Signaling Pathway in MEF (Tsc2-/-, p53-/-) Cells: Sytravon; conditions: phospho-rpS6 immunofluorescence/PI, 24 h; series mostly up to 38.3 µM; activity change, negative = inhibition: at the top concentration;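 further: plate controls were DMSO for no effect and rapamycin for full effect; nearly all actives have a fitted effect of over 50% in size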
Procedure, shortened: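 Readout is phospho-S6 Alexa 488 signal normalized to PI per well, reported as % active cells with thresholds set from rapamycin (7.5 nM) and DMSO controls. Cells: Tsc2-/-, p53-/- MEFs, 24 hrs compound at 37 C; PI cell number serves as viability.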

Which “activity change, negative = inhibition” value does the source give for `COc1ccc(C(C(=O)NCc2ccccc2)N(C(=O)Cn2nnc3ccccc32)c2ccc(OC)cc2)cc1` (stereo not drawn) here?
The value was inactive: 0.309%.

Which “activity change, negative = inhibition” value does the source give for `O=C1CC(=O)Nc2cc(S(=O)(=O)Nc3cccc(Br)c3)ccc2N1` here?
Its value is inactive: 1.16%.

With `COC(=O)c1cc2sc(Cl)cc2n1Cc1nc(-c2ccccc2F)oc1C` as the compound, how does the “activity change, negative = inhibition” value read?
Its value is inactive: -7.23%.

Which “activity change, negative = inhibition” value does the source give for `Cc1ccc(CCNC(=O)c2ccc(CNS(=O)(=O)c3ccc(F)cc3)cc2)cc1` here?
The value was inactive: -7.19%.

With `CC(=O)N1CCc2c(sc(NC(=O)CSc3ccc(C)cc3)c2-c2nc3ccccc3s2)C1` as the compound, how does the “activity change, negative = inhibition” value read?
Its value is inactive: 1.72%.

With `CCOC(=O)C1=C(CS(=O)(=O)c2ccc(F)c(C)c2)NC(=O)NC1c1ccc(F)c(F)c1` (stereo not drawn) as the compound, how does the “activity change, negative = inhibition” value read?
The value was inactive: -14.3%.

For `Cc1c(C(=O)Nc2ccccc2Cl)oc2ccc(S(=O)(=O)N3CCCCCC3)cc12`, which “activity change, negative = inhibition” value is on record?
The value was inactive: 5.13%.

Which “activity change, negative = inhibition” value does the source give for `Cc1cccc(N2CCN(C(=O)c3cccc(-n4c(C)nc5cccnc54)c3)CC2C)c1` (stereo not drawn) here?
The value was inactive: -0.283%.

For `Cc1cc(C)cc(NC(=O)Nc2c[nH]c(=O)[nH]c2=O)c1`, which “activity change, negative = inhibition” value is on record?
The value was inactive: -3.25%.

With `Cc1cc(C)c2c(n1)SCC(=O)N2CC(=O)Nc1c(C)cccc1C` as the compound, how does the “activity change, negative = inhibition” value read?
The value was inactive: -5.74%.

Which “activity change, negative = inhibition” value does the source give for `COc1ccc(NS(=O)(=O)c2cc3c4c(c2)CC(=O)N4CCC3)cc1Cl` here?
The value was inactive: -2.38%.

With `O=C(NC1(C(F)(F)F)N=C(c2ccccc2)N(C2CCCCC2)C1=O)c1ccccc1F` (stereo not drawn) as the compound, how does the “activity change, negative = inhibition” value read?
The value was inactive: -11.4%.

For `COc1ccc(-c2noc(CSc3nnc(-c4ccncc4)n3-c3cccc(C)c3)n2)cc1OC`, which “activity change, negative = inhibition” value is on record?
Its value is inactive: 1.37%.

With `Cc1ccc(-c2cc(-c3coc4ccccc4c3=O)c3c(n2)-c2cc(Cl)ccc2OC3)cc1` as the compound, how does the “activity change, negative = inhibition” value read?
Its value is inactive: -1.7%.

With `CC(=O)Nc1ccc(-c2nnc3n(CC(C)C)c(=O)c4ccccc4n23)cc1` as the compound, how does the “activity change, negative = inhibition” value read?
The value was inactive: -18.2%.

For `Cc1cc(C)cc(NC(=O)NCC2CCN(Cc3cc(C)ccc3C)CC2)c1`, which “activity change, negative = inhibition” value is on record?
Its value is inactive: -1.89%.

Which “activity change, negative = inhibition” value does the source give for `COc1ccccc1NC(=O)Cn1c(SCC(=O)NCc2ccccc2)nc2ccccc21` here?
Its value is inactive: 0.934%.

Which “activity change, negative = inhibition” value does the source give for `COc1ccc(CCC(=O)NCCc2csc(-c3cccc(F)c3)n2)cc1` here?
The value was inactive: 0%.

Which “activity change, negative = inhibition” value does the source give for `CCc1ccc(OCC2c3cc(OC)c(OC)cc3CCN2C(=O)Cc2ccc(OC)c(OC)c2)cc1` (stereo not drawn) here?
The value was inactive: 8.53%.

For `COc1cc2c(cc1NC(=O)C(C)Oc1ccc(Cl)cc1Cl)oc1ccccc12` (stereo not drawn), which “activity change, negative = inhibition” value is on record?
Its value is inactive: -2.8%.

With `COc1ccc(NC(=O)c2oc3ccc4c(c3c2C)C(=O)CC(C)(C)O4)cc1OC` as the compound, how does the “activity change, negative = inhibition” value read?
The value was inactive: 1.04%.

For `COc1ccc(NC(=O)CCCN2C(=O)C(c3ccccc3)Oc3cccnc32)cc1OC` (stereo not drawn), which “activity change, negative = inhibition” value is on record?
Its value is inactive: -7.26%.

Which “activity change, negative = inhibition” value does the source give for `COc1cc(-c2nnc(SCC(=O)N(C)C3CCCCC3)o2)cc(OC)c1OC` here?
Its value is inactive: 1.35%.

For `Cc1ccc(CCNC(=O)CCCn2nc(C)c3c(C)n(-c4ccc(C)cc4)nc3c2=O)cc1`, which “activity change, negative = inhibition” value is on record?
The value was inactive: -3%.

For `Cc1cc(N2CCN(C)CC2)nc2ccc(NC(=O)Nc3ccccc3Cl)cc12`, which “activity change, negative = inhibition” value is on record?
Its value is inactive: -7.97%.

Which “activity change, negative = inhibition” value does the source give for `Cc1ccc(OCC(=O)OCc2cc(=O)n3nc(C4CCCCC4)sc3n2)cc1` here?
Its value is inactive: -5%.

With `CCN(c1ncnc2c1c(-c1ccccc1)cn2-c1ccccc1)C1CCCCC1` as the compound, how does the “activity change, negative = inhibition” value read?
Its value is inactive: 11%.

With `CCOc1ccccc1NS(=O)(=O)c1c(C(=O)OC)sc2cccc(F)c12` as the compound, how does the “activity change, negative = inhibition” value read?
Its value is inactive: -11.1%.

For `COc1ccc(OC)c(CCNC(=O)c2sc3nc4n(c(=O)c3c2C)CCCC4)c1`, which “activity change, negative = inhibition” value is on record?
The value was inactive: 3.28%.

With `COc1ccc(N(C(=O)c2ccccc2C)S(=O)(=O)c2ccc3c(c2)n(C)c(=O)n3C)cc1` as the compound, how does the “activity change, negative = inhibition” value read?
Its value is inactive: 0.609%.

Which “activity change, negative = inhibition” value does the source give for `CSCCC(NC(=O)C1CCCCC1)C(=O)Nc1ccc(F)c(Cl)c1` (stereo not drawn) here?
The value was inactive: 4.26%.

For `CCNc1c(NC(=O)c2ccccc2OCC)c(=O)oc2ccccc12`, which “activity change, negative = inhibition” value is on record?
The value was inactive: -5.87%.

With `Cc1ccc(N2C(=O)[C@@H]3CSC(c4ccc(C(F)(F)F)cc4)N3C2=O)cc1` (stereo partly drawn) as the compound, how does the “activity change, negative = inhibition” value read?
The value was inactive: -8.46%.

With `COc1cccc(-c2nc(SC(C(C)=O)C(=O)N(C)C)c3c(=O)n(C)c(=O)n(C)c3n2)c1` (stereo not drawn) as the compound, how does the “activity change, negative = inhibition” value read?
The value was inactive: 1.12%.

For `CCOC(=O)C1=C(CNCc2ccccc2)NC(=O)NC1c1ccc(C)cc1` (stereo not drawn), which “activity change, negative = inhibition” value is on record?
Its value is inactive: -0.0779%.

For `COc1ccc(-n2c(=O)c3c(C)c(C)sc3n(Cc3ccc(F)cc3)c2=O)c(OC)c1`, which “activity change, negative = inhibition” value is on record?
The value was inactive: 2.33%.

Which “activity change, negative = inhibition” value does the source give for `Cc1ccc(S(=O)(=O)N2CCCc3cc(NC(=O)c4ccc(C(F)(F)F)cc4)ccc32)cc1` here?
The value was inactive: 0%.

Which “activity change, negative = inhibition” value does the source give for `O=C(Nc1ccc(F)cc1)c1cccc(N2CCCS2(=O)=O)c1` here?
The value was inactive: -0.243%.

With `CCOc1ccccc1NC(=O)C1CCN(S(=O)(=O)Cc2ccccc2)CC1` as the compound, how does the “activity change, negative = inhibition” value read?
The value was inactive: -19%.

Which “activity change, negative = inhibition” value does the source give for `Cc1cc(=O)n(C(C)C(=O)NCc2ccccc2Cl)c2c1c(C)nn2-c1ccccc1` (stereo not drawn) here?
Its value is inactive: 1.21%.

Which “activity change, negative = inhibition” value does the source give for `COc1cc(OC)c(C2C=C(c3ccc(C)cc3)Nc3c(C(=O)Nc4ccccc4)cnn32)cc1OC` (stereo not drawn) here?
Its value is inactive: -13.6%.

Which “activity change, negative = inhibition” value does the source give for `Cc1cc(O)c(C(c2ccccc2Cl)N2CCCCC2)c(=O)n1Cc1ccco1` (stereo not drawn) here?
Its value is inactive: 4.36%.

With `Cc1ccc(C(C)C)c(OCC(=O)Nc2c(C(=O)c3ccc(F)cc3)oc3ccccc23)c1` as the compound, how does the “activity change, negative = inhibition” value read?
The value was inactive: 9.35%.

With `Cc1c2cnn(CC(=O)N3CCCCC3)c(=O)c2c(C)n1Cc1ccc(Cl)cc1` as the compound, how does the “activity change, negative = inhibition” value read?
The value was inactive: -7.62%.

For `Cc1ccc(NC(=O)c2ccc3c(=O)n4nc(Nc5ccccc5C)sc4nc3c2)cc1C`, which “activity change, negative = inhibition” value is on record?
The value was inactive: -0.712%.

Which “activity change, negative = inhibition” value does the source give for `CCc1ccc(C2N3CC4(C)CN2CC(c2ccccc2)(C3)C4=O)cc1` (stereo not drawn) here?
The value was inactive: 4.14%.

For `CCn1cc(C(=O)NCc2ccccc2)c(=O)c2cc(S(=O)(=O)N3CCOCC3)ccc21`, which “activity change, negative = inhibition” value is on record?
Its value is inactive: 0.156%.

With `COC(=O)C1=C(C)NC(=O)NC1c1cn(-c2ccccc2)nc1-c1ccc(OC)c(Cl)c1` (stereo not drawn) as the compound, how does the “activity change, negative = inhibition” value read?
Its value is inactive: -13.8%.

— PubChem BioAssay AID493208 (National Center for Advancing Translational Sciences (NCATS), 2011)
